Article PMC12311180
No constants are given. Whether binding was seen depends on the method and setting. Binding seen in cells or lysates may run through a third protein. Some results given as binding are weak or reduced against the parent protein; the word gives no strength.

Sequences of proteins named here, by UniProt entry; tags and fusion partners are left off. A change or cut given only in a name is not applied to a line headed by its entry. A line that says so, or that is headed by a name, gives the form on record, which may keep a tag or linker.
UniProt Q2PPJ7: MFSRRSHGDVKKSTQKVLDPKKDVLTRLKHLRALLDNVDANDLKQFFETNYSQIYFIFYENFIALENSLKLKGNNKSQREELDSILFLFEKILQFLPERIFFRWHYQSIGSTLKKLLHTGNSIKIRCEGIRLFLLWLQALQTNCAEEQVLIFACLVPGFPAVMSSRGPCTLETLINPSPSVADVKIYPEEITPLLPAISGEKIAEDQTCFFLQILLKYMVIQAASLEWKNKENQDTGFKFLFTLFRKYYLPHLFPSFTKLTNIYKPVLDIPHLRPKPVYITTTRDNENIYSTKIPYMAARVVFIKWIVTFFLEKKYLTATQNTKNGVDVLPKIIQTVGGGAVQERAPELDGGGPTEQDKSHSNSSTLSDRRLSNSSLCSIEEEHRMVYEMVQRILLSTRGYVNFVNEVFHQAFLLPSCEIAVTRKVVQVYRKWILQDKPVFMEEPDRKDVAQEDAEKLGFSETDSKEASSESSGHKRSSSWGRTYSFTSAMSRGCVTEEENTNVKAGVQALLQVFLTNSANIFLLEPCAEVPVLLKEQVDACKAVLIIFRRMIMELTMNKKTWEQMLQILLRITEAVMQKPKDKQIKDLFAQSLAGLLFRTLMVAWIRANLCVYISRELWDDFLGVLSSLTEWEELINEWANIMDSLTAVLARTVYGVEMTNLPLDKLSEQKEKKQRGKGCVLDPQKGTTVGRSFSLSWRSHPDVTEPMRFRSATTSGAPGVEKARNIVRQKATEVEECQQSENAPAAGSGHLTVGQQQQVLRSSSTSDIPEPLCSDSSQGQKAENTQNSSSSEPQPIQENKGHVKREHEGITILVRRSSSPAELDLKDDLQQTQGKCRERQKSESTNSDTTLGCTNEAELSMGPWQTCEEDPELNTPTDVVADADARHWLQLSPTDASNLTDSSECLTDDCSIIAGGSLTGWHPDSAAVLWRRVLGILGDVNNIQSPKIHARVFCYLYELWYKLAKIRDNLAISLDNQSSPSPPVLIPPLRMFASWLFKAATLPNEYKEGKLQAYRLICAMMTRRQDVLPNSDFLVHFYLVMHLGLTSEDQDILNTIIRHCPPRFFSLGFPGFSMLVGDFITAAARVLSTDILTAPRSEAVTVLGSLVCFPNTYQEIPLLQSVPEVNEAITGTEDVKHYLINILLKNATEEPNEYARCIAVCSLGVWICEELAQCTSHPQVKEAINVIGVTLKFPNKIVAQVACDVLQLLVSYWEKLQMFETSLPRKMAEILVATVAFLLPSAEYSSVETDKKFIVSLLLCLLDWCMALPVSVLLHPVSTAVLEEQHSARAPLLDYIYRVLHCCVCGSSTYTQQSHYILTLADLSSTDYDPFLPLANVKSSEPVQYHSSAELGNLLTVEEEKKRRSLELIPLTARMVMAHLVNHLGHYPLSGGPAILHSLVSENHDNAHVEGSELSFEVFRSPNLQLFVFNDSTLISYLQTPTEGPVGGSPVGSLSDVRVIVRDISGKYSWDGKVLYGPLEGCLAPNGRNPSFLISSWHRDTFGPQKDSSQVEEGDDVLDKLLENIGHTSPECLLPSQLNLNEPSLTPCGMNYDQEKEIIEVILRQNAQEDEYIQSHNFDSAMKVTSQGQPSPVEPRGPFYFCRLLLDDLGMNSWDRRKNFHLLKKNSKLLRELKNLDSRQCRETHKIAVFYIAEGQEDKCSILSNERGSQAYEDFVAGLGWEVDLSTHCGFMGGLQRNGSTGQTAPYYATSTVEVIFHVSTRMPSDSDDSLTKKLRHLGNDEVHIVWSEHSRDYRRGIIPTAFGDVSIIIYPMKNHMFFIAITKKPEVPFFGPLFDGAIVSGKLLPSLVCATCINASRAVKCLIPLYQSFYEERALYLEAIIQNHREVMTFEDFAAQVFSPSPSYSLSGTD
RGα2^Δhug (lacking aa 1498-1593) (Q2PPJ7, form named): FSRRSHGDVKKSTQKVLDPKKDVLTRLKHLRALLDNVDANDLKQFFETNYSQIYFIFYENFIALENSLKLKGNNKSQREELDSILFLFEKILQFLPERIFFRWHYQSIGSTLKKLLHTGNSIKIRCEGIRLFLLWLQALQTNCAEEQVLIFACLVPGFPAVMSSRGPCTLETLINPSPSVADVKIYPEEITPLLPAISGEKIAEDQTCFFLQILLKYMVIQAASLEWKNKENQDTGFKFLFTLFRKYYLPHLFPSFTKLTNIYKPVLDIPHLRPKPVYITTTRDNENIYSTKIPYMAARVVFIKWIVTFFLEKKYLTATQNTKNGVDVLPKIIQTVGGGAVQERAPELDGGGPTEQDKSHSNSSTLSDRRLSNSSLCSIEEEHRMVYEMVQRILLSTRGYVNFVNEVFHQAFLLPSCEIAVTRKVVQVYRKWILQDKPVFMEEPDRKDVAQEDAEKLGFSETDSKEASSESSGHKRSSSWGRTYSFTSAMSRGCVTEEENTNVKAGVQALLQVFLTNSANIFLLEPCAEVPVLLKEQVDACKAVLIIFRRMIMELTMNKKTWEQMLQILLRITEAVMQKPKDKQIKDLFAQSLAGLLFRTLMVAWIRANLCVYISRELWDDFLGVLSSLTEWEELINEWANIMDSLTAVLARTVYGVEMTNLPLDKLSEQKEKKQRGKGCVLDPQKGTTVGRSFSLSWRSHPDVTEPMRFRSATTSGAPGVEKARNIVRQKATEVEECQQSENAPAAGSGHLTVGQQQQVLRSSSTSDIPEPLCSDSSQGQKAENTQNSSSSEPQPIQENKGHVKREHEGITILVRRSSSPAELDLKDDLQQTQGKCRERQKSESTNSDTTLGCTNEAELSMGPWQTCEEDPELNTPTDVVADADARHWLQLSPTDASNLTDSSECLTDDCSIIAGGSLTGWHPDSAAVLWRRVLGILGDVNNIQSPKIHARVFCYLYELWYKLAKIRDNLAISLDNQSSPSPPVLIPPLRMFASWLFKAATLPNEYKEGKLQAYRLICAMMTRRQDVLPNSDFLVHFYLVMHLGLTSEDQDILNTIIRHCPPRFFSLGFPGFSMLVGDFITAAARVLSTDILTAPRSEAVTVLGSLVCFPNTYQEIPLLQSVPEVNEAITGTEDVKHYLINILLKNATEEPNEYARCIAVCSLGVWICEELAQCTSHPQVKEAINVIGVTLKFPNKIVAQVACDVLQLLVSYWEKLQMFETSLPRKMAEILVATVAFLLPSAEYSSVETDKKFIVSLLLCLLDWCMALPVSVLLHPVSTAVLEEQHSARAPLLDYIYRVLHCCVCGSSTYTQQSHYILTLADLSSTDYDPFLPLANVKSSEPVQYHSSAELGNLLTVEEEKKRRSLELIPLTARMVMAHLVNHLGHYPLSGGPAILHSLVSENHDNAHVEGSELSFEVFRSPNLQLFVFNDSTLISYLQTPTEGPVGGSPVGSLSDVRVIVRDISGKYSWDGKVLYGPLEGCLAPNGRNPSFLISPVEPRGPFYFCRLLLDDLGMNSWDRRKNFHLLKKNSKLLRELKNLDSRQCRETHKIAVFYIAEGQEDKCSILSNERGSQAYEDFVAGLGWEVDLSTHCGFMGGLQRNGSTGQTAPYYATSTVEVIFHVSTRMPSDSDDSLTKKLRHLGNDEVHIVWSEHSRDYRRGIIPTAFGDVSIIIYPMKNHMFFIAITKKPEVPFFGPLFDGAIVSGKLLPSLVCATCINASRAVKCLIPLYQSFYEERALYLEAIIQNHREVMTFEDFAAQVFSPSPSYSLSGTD

Legend:
Assay in all cases: co-IP; transiently transfected HEK293T/HEK293FT cells; CoIP buffer 40 mM HEPES, 120 mM NaCl, 10 mM MgCl2, 0.3% CHAPS, pH 7.4; 3xflag beads 2-4 h; western blot
[1] = molecular target: RGα2 full-length (RGα2^fl), transiently expressed in HEK293 cells for co-immunoprecipitation (UniProt Q2PPJ7)
[2] = molecular target: RGβ full-length (RGβ^fl), transiently expressed in HEK293 cells for co-immunoprecipitation (UniProt Q86X10)
[3] = molecular target: RGα2^Δhug (lacking aa 1498-1593) (UniProt Q2PPJ7)
RGβ^D1 (W65R) = RGβ^D1 (W65R) (UniProt Q86X10)
[4] = molecular target: RGβ^D3 (V29E, V33Q, V37E) (UniProt Q86X10)

Row | Binder | binding [1] | binding [2] | binding [3] | binding (RGβ^D1 (W65R)) | binding [4]
1 | RGβ full-length (RGβ^fl), transiently expressed in HEK293 cells for co-immunoprecipitation (protein, UniProt Q86X10 1-1494) MYSEWRSLHLVIQNDQGHTSVLHSYPESVGREVANAVVRPLGQVLGTPSVAGSENLLKTDKEVKWTMEVICYGLTLPLDGETVKYCVDVYTDWIMALVLPKDSIPLPVIKEPNQYVQTILKHLQNLFVPRQEQGSSQIRLCLQVLRAIQKLARESSLMARETWEVLLLFLLQINDILLAPPTVQGGIAENLAEKLIGVLFEVWLLACTRCFPTPPYWKTAKEMVANWRHHPAVVEQWSKVICALTSRLLRFTYGPSFPAFKVPDEDASLIPPEMDNECVAQTWFRFLHMLSNPVDLSNPAIISSTPKFQEQFLNVSGMPQELNQYPCLKHLPQIFFRAMRGISCLVDAFLGISRPRSDSAPPTPVNRLSMPQSAAVSTTPPHNRRHRAVTVNKATMKTSTVSTAHASKVQHQTSSTSPLSSPNQTSSEPRPLPAPRRPKVNSILNLFGSWLFDAAFVHCKLHNGINRDSSMTAITTQASMEFRRKGSQMSTDTMVSNPMFDASEFPDNYEAGRAEACGTLCRIFCSKKTGEEILPAYLSRFYMLLIQGLQINDYVCHPVLASVILNSPPLFCCDLKGIDVVVPYFISALETILPDRELSKFKSYVNPTELRRSSINILLSLLPLPHHFGTVKSEVVLEGKFSNDDSSSYDKPITFLSLKLRLVNILIGALQTETDPNNTQMILGAMLNIVQDSALLEAIGCQMEMGGGENNLKSHSRTNSGISSASGGSTEPTTPDSERPAQALLRDYALNTDSAAGLLIRSIHLVTQRLNSQWRQDMSISLAALELLSGLAKVKVMVDSGDRKRAISSVCTYIVYQCSRPAPLHSRDLHSMIVAAFQCLCVWLTEHPDMLDEKDCLKEVLEIVELGISGSKSKNNEQEVKYKGDKEPNPASMRVKDAAEATLTCIMQLLGAFPSPSGPASPCSLVNETTLIKYSRLPTINKHSFRYFVLDNSVILAMLEQPLGNEQNDFFPSVTVLVRGMSGRLAWAQQLCLLPRGAKANQKLFVPEPRPVPKNDVGFKYSVKHRPFPEEVDKIPFVKADLSIPDLHEIVTEELEERHEKLRSGMAQQIAYEIHLEQQSEEELQKRSFPDPVTDCKPPPPAQEFQTARLFLSHFGFLSLEALKEPANSRLPPHLIALDSTIPGFFDDIGYLDLLPCRPFDTVFIFYMKPGQKTNQEILKNVESSRTVQPHFLEFLLSLGWSVDVGRHPGWTGHVSTSWSINCCDDGEGSQQEVISSEDIGASIFNGQKKVLYYADALTEIAFVVPSPVESLTDSLESNISDQDSDSNMDLMPGILKQPSLTLELFPNHTDNLNSSQRLSPSSRMRKLPQGRPVPPLGPETRVSVVWVERYDDIENFPLSELMTEISTGVETTANSSTSLRSTTLEKEVPVIFIHPLNTGLFRIKIQGATGKFNMVIPLVDGMIVSRRALGFLVRQTVINICRRKRLESDSYSPPHVRRKQKITDIVNKYRNKQLEPEFYTSLFQEVGLKNCSS | binds | binds | binds | – | –
2 | RGβ^D1 (W65R) (protein, UniProt Q86X10 1-1494) MYSEWRSLHLVIQNDQGHTSVLHSYPESVGREVANAVVRPLGQVLGTPSVAGSENLLKTDKEVKRTMEVICYGLTLPLDGETVKYCVDVYTDWIMALVLPKDSIPLPVIKEPNQYVQTILKHLQNLFVPRQEQGSSQIRLCLQVLRAIQKLARESSLMARETWEVLLLFLLQINDILLAPPTVQGGIAENLAEKLIGVLFEVWLLACTRCFPTPPYWKTAKEMVANWRHHPAVVEQWSKVICALTSRLLRFTYGPSFPAFKVPDEDASLIPPEMDNECVAQTWFRFLHMLSNPVDLSNPAIISSTPKFQEQFLNVSGMPQELNQYPCLKHLPQIFFRAMRGISCLVDAFLGISRPRSDSAPPTPVNRLSMPQSAAVSTTPPHNRRHRAVTVNKATMKTSTVSTAHASKVQHQTSSTSPLSSPNQTSSEPRPLPAPRRPKVNSILNLFGSWLFDAAFVHCKLHNGINRDSSMTAITTQASMEFRRKGSQMSTDTMVSNPMFDASEFPDNYEAGRAEACGTLCRIFCSKKTGEEILPAYLSRFYMLLIQGLQINDYVCHPVLASVILNSPPLFCCDLKGIDVVVPYFISALETILPDRELSKFKSYVNPTELRRSSINILLSLLPLPHHFGTVKSEVVLEGKFSNDDSSSYDKPITFLSLKLRLVNILIGALQTETDPNNTQMILGAMLNIVQDSALLEAIGCQMEMGGGENNLKSHSRTNSGISSASGGSTEPTTPDSERPAQALLRDYALNTDSAAGLLIRSIHLVTQRLNSQWRQDMSISLAALELLSGLAKVKVMVDSGDRKRAISSVCTYIVYQCSRPAPLHSRDLHSMIVAAFQCLCVWLTEHPDMLDEKDCLKEVLEIVELGISGSKSKNNEQEVKYKGDKEPNPASMRVKDAAEATLTCIMQLLGAFPSPSGPASPCSLVNETTLIKYSRLPTINKHSFRYFVLDNSVILAMLEQPLGNEQNDFFPSVTVLVRGMSGRLAWAQQLCLLPRGAKANQKLFVPEPRPVPKNDVGFKYSVKHRPFPEEVDKIPFVKADLSIPDLHEIVTEELEERHEKLRSGMAQQIAYEIHLEQQSEEELQKRSFPDPVTDCKPPPPAQEFQTARLFLSHFGFLSLEALKEPANSRLPPHLIALDSTIPGFFDDIGYLDLLPCRPFDTVFIFYMKPGQKTNQEILKNVESSRTVQPHFLEFLLSLGWSVDVGRHPGWTGHVSTSWSINCCDDGEGSQQEVISSEDIGASIFNGQKKVLYYADALTEIAFVVPSPVESLTDSLESNISDQDSDSNMDLMPGILKQPSLTLELFPNHTDNLNSSQRLSPSSRMRKLPQGRPVPPLGPETRVSVVWVERYDDIENFPLSELMTEISTGVETTANSSTSLRSTTLEKEVPVIFIHPLNTGLFRIKIQGATGKFNMVIPLVDGMIVSRRALGFLVRQTVINICRRKRLESDSYSPPHVRRKQKITDIVNKYRNKQLEPEFYTSLFQEVGLKNCSS | binds | – | – | no binding | –
3 | RGβ^D3 (V29E, V33Q, V37E) (protein, UniProt Q86X10 1-1494) MYSEWRSLHLVIQNDQGHTSVLHSYPESEGREQANAEVRPLGQVLGTPSVAGSENLLKTDKEVKWTMEVICYGLTLPLDGETVKYCVDVYTDWIMALVLPKDSIPLPVIKEPNQYVQTILKHLQNLFVPRQEQGSSQIRLCLQVLRAIQKLARESSLMARETWEVLLLFLLQINDILLAPPTVQGGIAENLAEKLIGVLFEVWLLACTRCFPTPPYWKTAKEMVANWRHHPAVVEQWSKVICALTSRLLRFTYGPSFPAFKVPDEDASLIPPEMDNECVAQTWFRFLHMLSNPVDLSNPAIISSTPKFQEQFLNVSGMPQELNQYPCLKHLPQIFFRAMRGISCLVDAFLGISRPRSDSAPPTPVNRLSMPQSAAVSTTPPHNRRHRAVTVNKATMKTSTVSTAHASKVQHQTSSTSPLSSPNQTSSEPRPLPAPRRPKVNSILNLFGSWLFDAAFVHCKLHNGINRDSSMTAITTQASMEFRRKGSQMSTDTMVSNPMFDASEFPDNYEAGRAEACGTLCRIFCSKKTGEEILPAYLSRFYMLLIQGLQINDYVCHPVLASVILNSPPLFCCDLKGIDVVVPYFISALETILPDRELSKFKSYVNPTELRRSSINILLSLLPLPHHFGTVKSEVVLEGKFSNDDSSSYDKPITFLSLKLRLVNILIGALQTETDPNNTQMILGAMLNIVQDSALLEAIGCQMEMGGGENNLKSHSRTNSGISSASGGSTEPTTPDSERPAQALLRDYALNTDSAAGLLIRSIHLVTQRLNSQWRQDMSISLAALELLSGLAKVKVMVDSGDRKRAISSVCTYIVYQCSRPAPLHSRDLHSMIVAAFQCLCVWLTEHPDMLDEKDCLKEVLEIVELGISGSKSKNNEQEVKYKGDKEPNPASMRVKDAAEATLTCIMQLLGAFPSPSGPASPCSLVNETTLIKYSRLPTINKHSFRYFVLDNSVILAMLEQPLGNEQNDFFPSVTVLVRGMSGRLAWAQQLCLLPRGAKANQKLFVPEPRPVPKNDVGFKYSVKHRPFPEEVDKIPFVKADLSIPDLHEIVTEELEERHEKLRSGMAQQIAYEIHLEQQSEEELQKRSFPDPVTDCKPPPPAQEFQTARLFLSHFGFLSLEALKEPANSRLPPHLIALDSTIPGFFDDIGYLDLLPCRPFDTVFIFYMKPGQKTNQEILKNVESSRTVQPHFLEFLLSLGWSVDVGRHPGWTGHVSTSWSINCCDDGEGSQQEVISSEDIGASIFNGQKKVLYYADALTEIAFVVPSPVESLTDSLESNISDQDSDSNMDLMPGILKQPSLTLELFPNHTDNLNSSQRLSPSSRMRKLPQGRPVPPLGPETRVSVVWVERYDDIENFPLSELMTEISTGVETTANSSTSLRSTTLEKEVPVIFIHPLNTGLFRIKIQGATGKFNMVIPLVDGMIVSRRALGFLVRQTVINICRRKRLESDSYSPPHVRRKQKITDIVNKYRNKQLEPEFYTSLFQEVGLKNCSS | binds | – | – | – | no binding
